According to ChEMBL document CHEMBL5308541, “MAIP: An Open-Source Tool to Enrich High-Throughput Screening Output and Identify Novel, Druglike Molecules with Antimalarial Activity” (ACS Med Chem Lett, 2023):
The whole screen tested about 150,000 compounds, of which about 540 (0.36%) showed an effect of 50% or more. Some of the results follow.

What follows are compounds tested on Plasmodium falciparum (assay: Primary screen in NF54 nanoGlo assay, in single point, at 2uM, 72h; a lower Z score goes with more inhibition). Settings: timepoint 72 hour.
Assay type: functional, Erythrocyte

Row | Structure (SMILES) | % Inhibition | Z score
1 | Fc1ccc(Nc2cc(-c3ccccc3)ncn2)c(F)c1 | 6% | -0.97
2 | COc1cc2ccc1Oc1cc(F)cc(c1)CNC(=O)CCCN(c1ccnc(N)n1)CCCNC2=O | 8% | -1.47
3 | CC(C)=CCNC(=O)c1conc1C1CN(C(=O)OC(C)(C)C)C1 | -9% | 1.31
4 | O=C(Nc1cccc(-c2cc[nH]n2)c1)N1CC2(CCOCC2)C1 | -10% | 1.8
5 | COCCN1CCC(CNc2nc(C)nc(C)c2C)CC1 | -12% | 2.11
6 | CN(C)S(=O)(=O)NC1CCN([C@H]2CCS(=O)(=O)C2)CC1 | 14% | -2.49
7 | Cc1noc(-c2ccnc(NCCNC(=O)CC3CCCCC3)c2)n1 | 1% | -0.09
8 | CN(C)c1nc(NC2CC(C)(C)NC(C)(C)C2)cc(C2CC(N)C2)n1 (stereo not drawn) | 14% | -3.11
9 | COc1cc(CCNC2CCN(C(C)C)CC2)ccc1F | 8% | -1.37
10 | Cc1cc(N2CCC(Nc3ncccn3)C(O)C2)c2cc3c(cc2n1)OCO3 (stereo not drawn) | -13% | 2.23
11 | N#Cc1ccc(-c2ccc(C(=O)NCCN3CCNCC3)cc2)cc1Cl | 8% | -1.53
12 | CN1CCC[C@H](Nc2nccc(N(C)C)n2)C1 | -9% | 1.51
13 | O=C(CCc1ccc(Cl)c(F)c1)N1CCNC[C@H]1C(F)F | 12% | -2.17
14 | c1cc(Cn2cncn2)cc(Nc2ncnc3[nH]ncc23)c1 | -3% | 0.39
15 | O=C1Nc2ccccc2NC12CCN(C1CCN(C3CCCC3)CC1)CC2 | -8% | 1.34
16 | CC[C@H](C)N(C)CCN=C(N)Nc1ccc(F)cc1 | 14% | -3.04
17 | OC1CCN(Cc2ccc(CNC3CCN4CCCC4C3)cc2)CC1 (stereo not drawn) | 15% | -3.34
18 | O=C(c1cc(COc2cncc(Cl)c2)on1)N1CC(N2CCCCC2)C1 | -3% | 0.48
19 | Cc1nnc(NC2CC3CC3C2)nc1C (stereo not drawn) | -2% | 0.41
20 | Cn1c(NCc2cc(F)cc3cccnc23)nc2ccc(C#N)cc21 | -25% | 4.37
21 | CN(C)[C@H]1CCN(c2ccnc3cnccc23)C1 | -1% | 0.15
22 | CN1CCN(C(=O)[C@H]2CCCN(C3CCN(c4noc(C5CC5)n4)CC3)C2)CC1 | 2% | -0.39
23 | CCc1cc(N[C@H]2CCN(Cc3cc(OC)cc(OC)c3)C2)nc(C)n1 | 9% | -1.79
24 | NS(=O)(=O)N1CCN(C(=O)NCc2noc(-c3ccccc3)n2)CC1 | -2% | 0.35
